# “And” between values parts separate entries of the source, which are not always exact repeats. Equal entries are not always repeated. Inconclusive results, whose numbers are uncertain, are shown with a selection of clear calls. For part of these data: Where the call is inconclusive, the potency comes from a doubtful curve fit. More than one record can exist for a structure, and the calls need not agree. The source made the active and inactive calls. Calls follow the shape of the dose curve; as a rule, active = well fitted curve in the direction sought with a large enough effect in the repeat runs; inconclusive = weak or mixed curves; inactive = no such curve, though single readings can be large; an effect the other way counts as inactive or inconclusive.
# What was measured:
# [1] = Caspase-3/7 induction in CHO-K1 cells by small molecules, qHTS cell viability counter screen (AID 1346979); also: nearly all actives have a fitted effect of over 35% in size; also: potency is read from the fitted curve at half-maximal effect
# Method in brief: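 Cells (CHO-K1, wild type) are plated at 1,500 per well and incubated 5hr. Test compounds in DMSO are then pinned in, followed by 16hr at 37C and 5% CO2. Viability is read by CellTiter-Fluor fluorescence after 1hr.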
# [2] = target: Cytochrome P450 2C19 (Homo sapiens) (UniProt P33261); test: Cytochrome P450 Family 2 Subfamily C Member 19 (CYP2C19) small molecule antagonists: luciferase reporter qHTS assay (AID 1671197); also: nearly all actives have a fitted effect of over 65% in size; also: potency is read from the fitted curve at half-maximal effect
# Method in brief: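 Inhibition of CYP2C19 was scored from loss of luminescence in a P450-Glo proluciferin substrate assay, NADPH-started and run 1 h at 37C, with ketoconazole as positive control.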
# [3] = target: Cytochrome P450 2C9 (Homo sapiens) (UniProt P11712); test: Cytochrome P450 Family 2 Subfamily C Member 9 (CYP2C9) small molecule antagonists: luciferase reporter qHTS assay (AID 1671198); also: nearly all actives have a fitted effect of over 50% in size; also: potency is read from the fitted curve at half-maximal effect
# Method in brief: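 CYP2C9 activity was measured with a P450-Glo proluciferin substrate. Enzyme–substrate mix was held with compound for 10 min at room temperature, then NADPH regeneration solution was added for 1 h at 37C. Luciferin product was read as luminescence.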
# [4] = target: Nuclear receptor subfamily 1 group I member 2 (Homo sapiens) (UniProt O75469); test: Human pregnane X receptor (PXR) activation by small molecules, qHTS assay (AID 1346985); also: potency is read from the fitted curve at half-maximal effect; nearly all actives have a fitted effect of over 40% in size
# Method in brief: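 DPX-2 cells (HepG2 co-transfected with a PXR response element and a CYP3A4-promoter luciferase construct) were seeded at 2,000 per well, rested 5 hr at 37C, then exposed to DMSO-dissolved compounds for 24 hr. Activation was read as luciferase luminescence.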
# [5] = target: Cytochrome P450 1A2 (Homo sapiens) (UniProt P05177); test: Cytochrome P450 Family 1 Subfamily A Member 2 (CYP1A2) small molecule antagonists: luciferase reporter qHTS assay (AID 1671199); also: nearly all actives have a fitted effect of over 50% in size; also: potency is read from the fitted curve at half-maximal effect
# Method in brief: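 Inhibition of CYP1A2 conversion of proluciferin to luciferin, detected by luminescence. Reaction run 1 h at room temperature with NADPH regeneration after brief compound preincubation.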
# [6] = target: Voltage-gated inwardly rectifying potassium channel KCNH2 (Homo sapiens) (UniProt Q12809); test: Human Ether-a-go-go-Related Gene (hERG) channel small molecule antagonists: fluorescence cell-based qHTS assay (AID 1671200); also: potency is read from the fitted curve at half-maximal effect; nearly all actives have a fitted effect of over 50% in size
# Method in brief: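 Channel function was assessed by thallium flux. Cells seeded the previous day and kept at 37 C took up FluxOR II dye over 1 h in the dark at room temperature, then sat another 10 min before stimulation.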
# [7] = target: Cytochrome P450 2D6 (Homo sapiens) (UniProt P10635); test: Cytochrome P450 Family 2 Subfamily D Member 6 (CYP2D6) small molecule antagonists: luciferase reporter qHTS assay (AID 1671196); also: nearly all actives have a fitted effect of over 50% in size; also: potency is read from the fitted curve at half-maximal effect
# Method in brief: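 P450-Glo format: CYP2D6 converts a proluciferin substrate to luciferin in an NADPH-driven reaction lasting 1 h at room temperature. Light output, proportional to CYP2D6 activity, reflects interference by test chemicals.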
# [8] = target: Cytochrome P450 3A4 (Homo sapiens) (UniProt P08684); test: Cytochrome P450 Family 3 Subfamily A Member 4 (CYP3A4) small molecule antagonists: luciferase reporter qHTS assay (AID 1671201); also: nearly all actives have a fitted effect of over 50% in size; also: potency is read from the fitted curve at half-maximal effect
# Method in brief: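 Compounds in DMSO were pin-transferred onto CYP3A4 enzyme-substrate mix and held 10 min at room temperature. NADPH regenerating solution started the reaction for 1 h; luciferin detection reagent stopped it, and luminescence was read after 20 min.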
# [9] = target: Nuclear receptor subfamily 1 group I member 2 (Rattus norvegicus) (UniProt Q9R1A7); test: Rat pregnane X receptor (rPXR) activation by small molecules, qHTS assay (AID 1346983); details: rPXR luciferase reporter cells, One-Glo luminescence, 24 h; max activation: stronger effect = higher value; also: potency is read from the fitted curve at half-maximal effect; nearly all actives have a fitted effect of over 20% in size
# Method in brief: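 Cell-based rPXR luciferase reporter assay, 2,000 cells per well, rested 5hr at 37 C before compound addition in DMSO, then 24 hr at 37 C. One-Glo reagent was added and luminescence read after 30 min at room temperature.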
# [10] = target: Nuclear receptor subfamily 1 group I member 2 (Homo sapiens) (UniProt O75469); test: Human pregnane X receptor (PXR) small molecule agonists, qHTS assay (AID 1346982); also: potency is read from the fitted curve at half-maximal effect; nearly all actives have a fitted effect of over 35% in size
# Method in brief: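 Agonist mode qHTS: PXR-Luc HepG2 cells plated 5 hr before DMSO-dissolved compounds were pinned in, cultured 24 hr at 37 C, 5% CO2; ONE-Glo luminescence readout.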
# [11] = target: Nuclear receptor subfamily 1 group I member 2 (Homo sapiens) (UniProt O75469); test: CYP3A4 induction through human pregnane X receptor (PXR) by small molecules, qHTS assay (AID 1346984); also: nearly all actives have a fitted effect of over 40% in size
# Method in brief: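 Steps: seed DPX-2 cells, 5 hr at 37C; pin-transfer compounds; 24 hr at 37C; add Luciferin-IPA (3uM final), 3 hr at 37C; add One-Glo, 30 min RT; read luminescence.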
# Tags tell the direction and shape of the fitted curve.
# UniProt Q12809, sequence (Q12809 whole entry, looked up): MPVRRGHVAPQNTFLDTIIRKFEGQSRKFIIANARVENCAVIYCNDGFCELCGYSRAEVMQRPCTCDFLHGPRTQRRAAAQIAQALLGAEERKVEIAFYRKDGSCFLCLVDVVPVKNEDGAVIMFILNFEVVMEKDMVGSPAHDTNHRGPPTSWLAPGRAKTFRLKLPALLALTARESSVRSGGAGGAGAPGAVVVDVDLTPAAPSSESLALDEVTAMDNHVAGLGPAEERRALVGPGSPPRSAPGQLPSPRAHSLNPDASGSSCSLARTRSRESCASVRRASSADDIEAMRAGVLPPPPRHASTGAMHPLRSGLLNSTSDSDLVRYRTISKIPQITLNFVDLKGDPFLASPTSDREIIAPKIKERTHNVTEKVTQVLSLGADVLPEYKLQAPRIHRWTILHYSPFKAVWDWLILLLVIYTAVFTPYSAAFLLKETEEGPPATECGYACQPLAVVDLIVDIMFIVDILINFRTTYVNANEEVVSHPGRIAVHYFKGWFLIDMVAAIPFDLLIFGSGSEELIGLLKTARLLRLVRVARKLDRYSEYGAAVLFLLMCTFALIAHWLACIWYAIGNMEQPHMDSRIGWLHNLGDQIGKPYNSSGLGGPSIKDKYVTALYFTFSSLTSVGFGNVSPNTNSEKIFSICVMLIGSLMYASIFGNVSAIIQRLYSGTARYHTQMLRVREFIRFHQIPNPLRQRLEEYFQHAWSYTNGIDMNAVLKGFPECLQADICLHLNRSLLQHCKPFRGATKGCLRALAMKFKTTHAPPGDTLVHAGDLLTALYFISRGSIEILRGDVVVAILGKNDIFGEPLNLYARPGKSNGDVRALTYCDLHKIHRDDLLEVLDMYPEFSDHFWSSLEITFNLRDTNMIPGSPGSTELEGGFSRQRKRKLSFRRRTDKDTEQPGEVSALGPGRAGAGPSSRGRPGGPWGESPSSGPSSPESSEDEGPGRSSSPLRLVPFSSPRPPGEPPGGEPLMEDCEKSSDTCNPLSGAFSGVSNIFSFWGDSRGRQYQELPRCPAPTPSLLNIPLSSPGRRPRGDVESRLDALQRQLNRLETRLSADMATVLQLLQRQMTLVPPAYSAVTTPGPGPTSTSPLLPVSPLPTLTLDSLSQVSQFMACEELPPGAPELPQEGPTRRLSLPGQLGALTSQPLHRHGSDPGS
# UniProt P08684, sequence (P08684 whole entry, looked up): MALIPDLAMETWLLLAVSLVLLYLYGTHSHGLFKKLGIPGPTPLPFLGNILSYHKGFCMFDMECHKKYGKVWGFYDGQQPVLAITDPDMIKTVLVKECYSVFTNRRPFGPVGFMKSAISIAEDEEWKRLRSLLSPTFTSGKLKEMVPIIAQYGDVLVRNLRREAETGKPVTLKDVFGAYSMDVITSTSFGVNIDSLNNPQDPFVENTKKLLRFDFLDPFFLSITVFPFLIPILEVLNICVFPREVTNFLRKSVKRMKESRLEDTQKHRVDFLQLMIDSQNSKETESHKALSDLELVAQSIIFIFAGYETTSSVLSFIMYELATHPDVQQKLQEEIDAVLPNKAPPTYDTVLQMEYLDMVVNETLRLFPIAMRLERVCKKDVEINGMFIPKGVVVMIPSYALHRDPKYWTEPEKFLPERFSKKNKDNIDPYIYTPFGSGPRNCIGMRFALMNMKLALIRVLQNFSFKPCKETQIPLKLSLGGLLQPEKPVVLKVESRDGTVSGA
# UniProt P05177, sequence (P05177 whole entry, looked up): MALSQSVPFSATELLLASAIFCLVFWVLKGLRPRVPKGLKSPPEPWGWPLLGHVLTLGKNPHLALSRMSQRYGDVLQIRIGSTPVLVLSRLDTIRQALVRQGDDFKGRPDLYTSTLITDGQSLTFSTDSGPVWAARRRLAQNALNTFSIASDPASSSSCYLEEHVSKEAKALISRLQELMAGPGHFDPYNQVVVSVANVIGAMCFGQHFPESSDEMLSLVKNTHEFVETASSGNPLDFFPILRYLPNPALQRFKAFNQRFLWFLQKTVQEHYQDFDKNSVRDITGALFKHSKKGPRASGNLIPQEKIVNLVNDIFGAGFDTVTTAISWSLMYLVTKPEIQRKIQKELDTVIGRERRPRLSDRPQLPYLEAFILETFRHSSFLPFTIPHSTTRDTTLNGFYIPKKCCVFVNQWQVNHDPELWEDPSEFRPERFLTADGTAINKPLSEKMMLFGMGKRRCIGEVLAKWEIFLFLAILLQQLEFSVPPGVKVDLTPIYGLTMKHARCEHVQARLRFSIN
# UniProt P33261, sequence (P33261 whole entry, looked up): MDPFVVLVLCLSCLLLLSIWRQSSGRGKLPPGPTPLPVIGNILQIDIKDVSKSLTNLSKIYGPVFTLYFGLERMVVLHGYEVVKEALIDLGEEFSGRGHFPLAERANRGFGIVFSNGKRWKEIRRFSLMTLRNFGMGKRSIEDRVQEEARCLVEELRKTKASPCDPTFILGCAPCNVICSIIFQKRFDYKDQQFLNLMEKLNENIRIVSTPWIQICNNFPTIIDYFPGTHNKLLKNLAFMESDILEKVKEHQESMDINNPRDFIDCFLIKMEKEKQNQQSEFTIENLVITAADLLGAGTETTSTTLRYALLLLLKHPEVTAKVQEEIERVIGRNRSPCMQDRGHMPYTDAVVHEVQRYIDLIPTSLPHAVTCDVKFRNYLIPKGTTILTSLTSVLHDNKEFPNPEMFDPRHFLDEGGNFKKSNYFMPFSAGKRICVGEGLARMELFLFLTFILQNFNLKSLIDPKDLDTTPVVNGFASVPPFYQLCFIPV
# UniProt P10635, sequence (P10635 whole entry, looked up): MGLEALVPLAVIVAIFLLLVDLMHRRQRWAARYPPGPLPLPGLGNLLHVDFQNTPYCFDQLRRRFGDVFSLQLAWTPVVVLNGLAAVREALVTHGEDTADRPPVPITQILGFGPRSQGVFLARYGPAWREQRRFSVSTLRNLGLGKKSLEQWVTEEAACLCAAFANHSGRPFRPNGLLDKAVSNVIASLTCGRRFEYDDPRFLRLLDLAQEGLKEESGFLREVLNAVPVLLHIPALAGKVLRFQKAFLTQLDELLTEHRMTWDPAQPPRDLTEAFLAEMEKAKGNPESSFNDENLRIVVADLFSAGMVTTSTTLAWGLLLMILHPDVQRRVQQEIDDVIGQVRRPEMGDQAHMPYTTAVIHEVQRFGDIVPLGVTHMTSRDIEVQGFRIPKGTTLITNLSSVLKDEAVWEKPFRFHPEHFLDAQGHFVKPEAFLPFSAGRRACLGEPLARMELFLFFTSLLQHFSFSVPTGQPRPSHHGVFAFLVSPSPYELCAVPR
# UniProt P11712, sequence (P11712 whole entry, looked up): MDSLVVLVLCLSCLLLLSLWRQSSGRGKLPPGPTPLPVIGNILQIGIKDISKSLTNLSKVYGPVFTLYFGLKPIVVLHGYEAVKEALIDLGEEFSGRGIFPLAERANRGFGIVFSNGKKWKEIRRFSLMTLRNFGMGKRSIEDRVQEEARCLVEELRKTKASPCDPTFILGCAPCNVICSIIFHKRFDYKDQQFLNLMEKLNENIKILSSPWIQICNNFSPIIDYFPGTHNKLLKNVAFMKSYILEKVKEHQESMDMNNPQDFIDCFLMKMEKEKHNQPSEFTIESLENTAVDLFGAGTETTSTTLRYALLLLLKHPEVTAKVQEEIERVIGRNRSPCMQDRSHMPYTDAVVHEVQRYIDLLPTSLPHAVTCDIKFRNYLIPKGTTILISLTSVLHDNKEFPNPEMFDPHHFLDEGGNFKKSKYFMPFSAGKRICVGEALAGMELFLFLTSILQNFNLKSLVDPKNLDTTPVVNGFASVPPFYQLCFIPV
# UniProt Q9R1A7, sequence (Q9R1A7 whole entry, looked up): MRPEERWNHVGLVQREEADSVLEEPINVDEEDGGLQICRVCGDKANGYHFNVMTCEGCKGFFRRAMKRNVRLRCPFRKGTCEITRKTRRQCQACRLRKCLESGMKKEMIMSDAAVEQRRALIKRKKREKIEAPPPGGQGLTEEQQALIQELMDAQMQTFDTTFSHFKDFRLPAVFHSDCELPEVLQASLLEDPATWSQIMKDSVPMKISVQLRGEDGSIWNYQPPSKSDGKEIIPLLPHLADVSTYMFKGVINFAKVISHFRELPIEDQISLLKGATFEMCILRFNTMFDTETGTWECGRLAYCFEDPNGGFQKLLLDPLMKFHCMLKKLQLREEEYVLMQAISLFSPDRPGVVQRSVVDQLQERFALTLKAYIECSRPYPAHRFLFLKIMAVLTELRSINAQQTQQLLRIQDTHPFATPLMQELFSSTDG
compound,measurement,setting,value
CCOC(=O)[C@@](C)(N)Cc1ccc(O)c(O)c1,Potency,[1],"inconclusive: 33.5 µM [cytotoxic, single point]"
same,Potency,[2],"inconclusive: 38.9 µM [inhibitor, single point]"
same,Potency,[3],inactive
CC(=O)Oc1ccc2c(c1)CC[C@@H]1[C@@H]2CC[C@]2(C)[C@@H](O)CC[C@@H]12,Potency,[1],inconclusive: 33.5 µM [cytotoxic]
same,Potency,[4],"inconclusive: 12.6 µM [activator, partial curve]"
same,Potency,[3],inactive
same,Potency,[5],"inconclusive: 30.9 µM [inhibitor, partial curve]"
CCN(CC)CCCN(c1ccccc1)C1Cc2ccccc2C1,Potency,[1],inactive
same,Potency,[2],"inconclusive: 38.9 µM [inhibitor, single point]"
same,Potency,[3],inactive
same,Potency,[5],"inconclusive: 27.5 µM [inhibitor, partial curve]"
same,Potency,[6],active: 2.13 µM
N[C@@H](Cc1cc(I)c(Oc2cc(I)c(O)c(I)c2)c(I)c1)C(=O)O,Potency,[1],inactive
same,Potency,[2],"inconclusive: 56.8 µM [inhibitor, single point]"
O=c1c(-c2ccc(O)cc2)coc2cc(O)cc(O)c12,Potency,[1],"active: 60.1 µM and active: 48.6 µM and inconclusive: 8.41 µM [cytotoxic, partial curve]"
same,Potency,[7],"inconclusive: 62.2 µM [inhibitor, partial curve] and inactive"
same,Potency,[2],"inconclusive: 43.6 µM [inhibitor, single point]"
same,Potency,[5],"active: 19.7 µM and active: 39.9 µM and inconclusive: 27.5 µM [inhibitor, partial curve]"
CCCOC(=O)NCCCN(C)C,Potency,[1],inactive
same,Potency,[7],active: 35.6 µM
same,Potency,[5],"inactive and inconclusive: 79.6 µM [inhibitor, partial curve, poor fit]"
same,Potency,[8],inactive
C[C@]12CC[C@@H]3c4ccc(O)cc4C[C@@H](CCCCCCCCCS(=O)CCCC(F)(F)C(F)(F)F)[C@H]3[C@@H]1CC[C@@H]2O (stereo partly specified),Potency,[1],"inconclusive: 68.5 µM [cytotoxic, single point] and inconclusive: 14.3 µM [cytotoxic, partial curve] and inconclusive: 6.68 µM [cytotoxic, full curve]"
same,Potency,[9],"inconclusive: 28.2 µM [activator, partial curve, poor fit]"
same,Potency,[7],"inconclusive: 18.6 µM [inhibitor, partial curve, poor fit]"
same,Potency,[5],"inconclusive: 23.5 µM [inhibitor, partial curve]"
CC(C)(C)c1ccc(CCC=O)cc1,Potency,[1],"inconclusive: 77 µM [cytotoxic, single point]"
same,Potency,[2],"inconclusive: 79.6 µM [inhibitor, single point]"
same,Potency,[3],"inconclusive: 31.7 µM [inhibitor, full curve]"
same,Potency,[5],"inconclusive: 39.9 µM [inhibitor, partial curve]"
same,Potency,[6],"inconclusive: 54.9 µM [inhibitor, single point]"
same,Potency,[8],"inconclusive: 56.4 µM [inhibitor, partial curve]"
COc1cc(C(=O)NC2CCCNC2)cc(OC)c1OC (stereo unspecified),Potency,[1],inactive
same,Potency,[2],inactive
same,Potency,[3],"inconclusive: 17.4 µM [inhibitor, partial curve]"
Cc1occc1SSc1ccoc1C,Potency,[1],"inconclusive: 68.6 µM [cytotoxic, single point]"
same,Potency,[10],"inconclusive: 61.1 µM [activator, single point]"
same,Potency,[5],"inconclusive: 63.3 µM [inhibitor, partial curve]"
same,Potency,[6],"inconclusive: 49 µM [inhibitor, partial curve]"
same,Potency,[8],"inconclusive: 63.3 µM [inhibitor, partial curve, poor fit]"
Oc1ccc2c(c1)Cc1ccccc1-2,Potency,[1],"inconclusive: 77 µM [cytotoxic, single point]"
same,Potency,[3],active: 35.6 µM
CCN(Cc1cccc(S(=O)(=O)O)c1)c1ccc(C(=C2C=CC(=[N+](CC)Cc3cccc(S(=O)(=O)O)c3)C=C2)c2ccccc2S(=O)(=O)[O-])cc1,Potency,[1],active: 17.3 µM
same,Potency,[3],active: 11.3 µM
CC(C=O)Cc1ccc(C(C)(C)C)cc1 (stereo unspecified),Potency,[1],"inconclusive: 76.9 µM [cytotoxic, single point]"
same,Potency,[10],"inconclusive: 34.4 µM [activator, partial curve]"
same,Potency,[3],"inconclusive: 89.4 µM [inhibitor, partial curve, poor fit]"
same,Potency,[5],"inconclusive: 22.4 µM [inhibitor, full curve]"
same,Potency,[6],"inconclusive: 43.6 µM [inhibitor, partial curve]"
CC[N+](CC)(CCNC(=O)C(=O)NCC[N+](CC)(CC)Cc1ccccc1Cl)Cc1ccccc1Cl,Potency,[1],inactive
same,Potency,[11],inactive
same,Potency,[5],"inconclusive: 15.5 µM [inhibitor, partial curve]"
CCCCCCCCCC(=O)OC,Potency,[1],inactive
same,Potency,[7],inactive
O=C(O)c1cccc(C(=O)O)c1,Potency,[1],"inconclusive: 68.6 µM [rising, partial curve, poor fit]"
same,Potency,[2],"inconclusive: 80.9 µM [inhibitor, single point]"
O=C(O)C1(C(=O)O)CCC1.[NH2-].[NH2-].[Pt+2],Potency,[1],inactive
same,Potency,[7],"inconclusive: 27.5 µM [inhibitor, partial curve]"
C=C(C)C(=O)O,Potency,[1],inactive
same,Potency,[2],inactive
same,Potency,[3],inactive
same,Potency,[5],"inconclusive: 72.3 µM [inhibitor, partial curve, poor fit]"
CC1=CCC(=C(C)C)CC1,Potency,[1],inactive
same,Potency,[10],active: 43.3 µM
same,Potency,[2],active: 79.6 µM
same,Potency,[5],"inconclusive: 71 µM [inhibitor, partial curve]"

# Source: PubChem BioAssay (Tox21)
